In PubChem BioAssay AID686979 (National Center for Advancing Translational Sciences (NCATS), 2013):
In all, about 420,000 compounds went through this assay and about 50,000 (12%) were called active. This list was built around the results that the source calls inconclusive (neither active nor inactive); the mix of calls is not that of the screen. Calls follow the shape of the dose curve; as a rule, active = well fitted inhibition curve with a large enough effect; inconclusive = small, poorly fitted or top-dose-only effect; inactive = flat fitted curve, though single readings scatter. No potency is given beside an inconclusive call; the fits are too rough.

Experiment: qHTS for Inhibitors of human tyrosyl-DNA phosphodiesterase 1 (TDP1): qHTS in cells in presence of CPT; also: nearly all actives have a fitted effect of over 55% in size
Conditions: chicken DT40 Tdp1-/-;hTDP1 cells + 20 nM CPT, ATP luminescence, 48 h; activity change, negative = growth inhibition: at 46.2 µM (top of the series) unless noted
Method in brief: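 Chicken DT40 Tdp1-/- cells complemented with human TDP1, 400 cells/well, exposed to compounds plus 20 nM camptothecin for at least 48 h at 37 C; viability read as ATP content by CellTiter-Glo luminescence.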
% is scaled to controls: 0 for no effect and ±100 for the full control effect; potency is read from the fitted curve at half-maximal effect; tags tell the direction and shape of the fitted curve.

Question: With `COc1ccccc1C(CNC(=O)CCNS(=O)(=O)c1ccc(Br)cc1)N1CCCC1` (stereo not given) as the compound, how does the Potency read?
Answer: inconclusive [inhibitor, single point]

Question: For `O=C(CSc1nnc(SCc2ccccc2)s1)N/N=C/c1c(Cl)cccc1Cl`, which Potency is on record?
Answer: inconclusive [inhibitor, single point]

Question: With `CC(C)C[C@@H](CNCC(=O)[C@H](CC(C)C)NC(=O)c1[nH]cnc1C(=O)N[C@H](CN)CC(C)C)NC(=O)c1nc[nH]c1C(=O)N[C@@H](Cc1ccccc1)C(=O)O` as the compound, how does the Potency read?
Answer: inconclusive [inhibitor, single point]

Question: With `CCOC(=O)CSc1nnc2n(-c3ccccc3)c(=O)c3c4c(sc3n12)CC(C(C)(C)C)CC4` (stereo not given) as the compound, how does the Potency read?
Answer: inconclusive [inhibitor, single point]

Question: For `CC(=O)Nc1sc(N/N=C/c2ccccc2)nc1-c1ccc(C)cc1`, which Potency is on record?
Answer: inconclusive [inhibitor, full curve, poor fit]

Question: For `CC(C)Cn1c(-c2ccc(Br)cc2)c[nH]c1=S`, which Potency is on record?
Answer: active: 16.4 µM

Question: Which Potency does the source give for `O=C(NC(Cc1ccccc1)C(=O)N1CCN(c2ccccc2O)CC1)c1ccccc1` (stereo not given) here?
Answer: inconclusive [inhibitor, single point]

Question: For `CCS(=O)(=O)N1CCN(C(=O)c2cccs2)CC1`, which Potency is on record?
Answer: inactive

Question: For `COc1ccc(-n2c(SCC(=O)C(C)(C)C)nc3ccsc3c2=O)cc1`, which Potency is on record?
Answer: inactive

Question: For `Cc1c(C)n(C)c2ccc(C(=O)NCc3cccc(F)c3)cc12`, which Potency is on record?
Answer: active: 23.1 µM

Question: For `COC(=O)[C@H](Cc1ccccc1)NC(=O)c1cc(COc2c(F)cccc2F)on1`, which Potency is on record?
Answer: inactive

Question: Which Potency does the source give for `COc1ccc(NC(=O)N(C)C[C@H]2Oc3c(NC(=O)Nc4c(C)noc4C)cccc3C(=O)N([C@H](C)CO)C[C@@H]2C)cc1` here?
Answer: inactive

Question: Which Potency does the source give for `COc1cc([N+](=O)[O-])cc(/C=N/NC(=O)Cn2nc(C)cc2C)c1O` here?
Answer: inconclusive [inhibitor, single point]

Question: For `COc1ccc(C=C2SC(=O)NC2=O)cc1OC`, which Potency is on record?
Answer: inconclusive [inhibitor, single point]

Question: Which Potency does the source give for `CCOc1ccc(CNC(=O)CCCc2cn(C)c3ccccc23)cc1OC` here?
Answer: inconclusive [inhibitor, single point]

Question: Which Potency does the source give for `O=C(CCC1CCN(C(=O)c2ccccc2Cl)CC1)NCc1ccc(F)cc1` here?
Answer: inconclusive [inhibitor, single point]

Question: With `COCCNC(=O)CN(C(=O)c1ccc(N2CCCC2)nc1)c1ccc(Cl)cc1` as the compound, how does the Potency read?
Answer: inconclusive [inhibitor, single point]

Question: For `CCOc1cc2sc(N3CCC(C(=O)Nc4cc(C)cc(C)c4)CC3)nc2cc1Br`, which Potency is on record?
Answer: active: 20.6 µM

Question: For `CC(=O)NC1(C(F)(F)F)N=C(c2ccccc2)NC1=O` (stereo not given), which Potency is on record?
Answer: inactive

Question: For `O=C(/C=C\c1cccs1)c1c(O)ccc2ccc(=O)oc12`, which Potency is on record?
Answer: inconclusive [inhibitor, single point]

Question: For `Cc1cc(=O)c2cc(C(=O)Nc3ccccc3C)ccc2[nH]1`, which Potency is on record?
Answer: inactive

Question: With `CC(C)(O)P(C)(=O)c1ccccc1` (stereo not given) as the compound, how does the Potency read?
Answer: inactive

Question: For `CC(=O)N1CCC[C@@]2(CCN(Cc3nccs3)C2)C1`, which Potency is on record?
Answer: inactive

Question: With `Cc1ccc(Cl)cc1N1CCN(C(c2cccnc2)c2nnnn2C2CCCCC2)CC1` (stereo not given) as the compound, how does the Potency read?
Answer: inconclusive [inhibitor, single point]

Question: Which Potency does the source give for `COc1ccc(CCC(=O)Nc2cnc3ccccc3c2)cc1` here?
Answer: inactive

Question: For `CC(C)Oc1ccc(C(=O)Nc2nnc(SCC(=O)N3CCOCC3)s2)cc1`, which Potency is on record?
Answer: inactive

Question: For `O=S1(=O)CCN2N=C(C3CC3)SC2=N1`, which Potency is on record?
Answer: inactive

Question: With `N#C/C(=C\c1cc([N+](=O)[O-])ccc1Cl)C(N)=O` as the compound, how does the Potency read?
Answer: active: 2.59 µM

Question: For `CCC(=O)NNc1nc2c(C)cc(C)cc2s1`, which activity change, negative = growth inhibition is on record?
Answer: inconclusive: -17.9% [inhibitor]

Question: For `CCOC(=O)c1c[nH]c2ccc3ccccc3c2c1=O`, which Potency is on record?
Answer: inconclusive [inhibitor, single point]

Question: With `COc1ccc(Cn2ccc3nc(C)c(C(=O)NCc4cccc(OC)c4)cc3c2=O)cc1` as the compound, how does the Potency read?
Answer: inconclusive [inhibitor, single point]

Question: With `CCc1cccc(C)c1NC(=S)N(CCN(C)C)Cc1cccs1` as the compound, how does the Potency read?
Answer: inconclusive [inhibitor, single point]

Question: For `O=C(COC(=O)Cn1cnc2ccccc21)Nc1ccc(OC(F)F)cc1`, which Potency is on record?
Answer: inactive

Question: Which Potency does the source give for `CC(C)(C)NC(=O)C(c1ccncc1)N(Cc1cccs1)C(=O)Cn1nnc(-c2cccs2)n1` (stereo not given) here?
Answer: inactive

Question: With `C/C(CC(=O)Nc1ccc(OCc2ccccc2)cc1)=N\NC(=O)C(=O)Nc1ccccc1C` as the compound, how does the Potency read?
Answer: inconclusive [inhibitor, single point]

Question: Which Potency does the source give for `CN(C(=O)COC(=O)c1cc(S(=O)(=O)N2CCCCC2)ccc1Cl)c1ccccc1` here?
Answer: inconclusive [inhibitor, single point]

Question: With `COC(=O)c1ccc(CSc2nnc3ccc4ccccc4n23)cc1` as the compound, how does the Potency read?
Answer: inconclusive [inhibitor, single point]

Question: With `COC(=O)[C@]1(C)CCC[C@@]2(C)C3CC[C@]4(OC(C)=O)C[C@@]3(CCC21)CC4=NO` (stereo not given in full) as the compound, how does the Potency read?
Answer: active: 16.4 µM

Question: With `CCCc1nc2ccccc2c(C(=O)OCC(=O)Nc2ccc(S(=O)(=O)N3CCOCC3)cc2)c1CC` as the compound, how does the Potency read?
Answer: active: 16.4 µM

Question: For `Cn1ncc2c(Nc3ccc4ccccc4c3)ncnc21`, which Potency is on record?
Answer: inconclusive [inhibitor, single point]

Question: Which Potency does the source give for `COc1ccccc1N(CC(=O)Nc1cc(S(=O)(=O)N(C)C)ccc1C)S(=O)(=O)c1cccs1` here?
Answer: inconclusive [inhibitor, single point]

Question: Which Potency does the source give for `COc1cc2c(=O)n(Cc3ccccc3)c(=O)n(CC(=O)NCc3ccco3)c2cc1OC` here?
Answer: inconclusive [inhibitor, partial curve]

Question: For `Cc1onc(-c2ccccc2)c1C(=O)NC(=S)NNC(=O)c1ccco1`, which Potency is on record?
Answer: inconclusive [inhibitor, single point]

Question: With `Clc1ccc(-c2cc3nc(NCc4cccc(Cl)c4)ccn3n2)cc1` as the compound, how does the Potency read?
Answer: inconclusive [inhibitor, single point]

Question: Which Potency does the source give for `CCn1c(SC(C)C(=O)NCC2CCCO2)nc2scc(-c3ccccc3)c2c1=O` (stereo not given) here?
Answer: active: 18.4 µM

Question: For `COc1ccccc1Cn1cc(C(=O)c2ccc(C)cc2)c(=O)c2cc3c(cc21)OCCO3`, which Potency is on record?
Answer: active: 14.6 µM

Question: Which Potency does the source give for `Cc1ccc(CNc2nc3cc(-c4ccccc4C)sc3c(=O)n2C)c(C)c1` here?
Answer: inconclusive [inhibitor, single point]

Question: With `O=C(CN1CCN(Cc2ccccc2)CC1)Nc1ccc(S(=O)(=O)N2CCOCC2)cc1` as the compound, how does the Potency read?
Answer: inconclusive [inhibitor, single point]

Question: With `CC(C)c1ccc(/C=N/NC(=O)c2nnn(-c3nonc3N)c2CSC2=NCCS2)cc1` as the compound, how does the Potency read?
Answer: inconclusive [inhibitor, single point]

Question: For `COc1c(C(CC(C)C)OC(C)=O)ccc2c1C(=O)OCc1cc(C)cc(O)c1O2` (stereo not given), which Potency is on record?
Answer: active: 9.2 µM

Question: With `Oc1ccccc1C(Nc1nccs1)c1ccc2cccnc2c1O` (stereo not given) as the compound, how does the Potency read?
Answer: active: 3.66 µM

Question: Which Potency does the source give for `Cc1cccc(N2CCN(C(=O)c3cc(C)oc3C)CC2C)c1` (stereo not given) here?
Answer: inconclusive [inhibitor, single point]

Question: Which Potency does the source give for `CCc1ccc(C(c2c(C)nn(-c3ccccc3)c2N)c2c(C)nn(-c3ccccc3)c2N)cc1` here?
Answer: inconclusive [inhibitor, single point]

Question: Which Potency does the source give for `O=C1CC/C=C\C[C@@H](CC(=O)N(CCO)Cc2ccccc2)C(=O)N[C@H](Cc2c[nH]c3ccccc23)CO1` here?
Answer: active: 16.4 µM

Question: Which Potency does the source give for `COC(=O)CC1=NN(c2ccccc2)C(=O)C1` here?
Answer: inactive

Question: With `CCOC(=O)c1c(C)[nH]c(C)c1C(=O)COC(=O)CSc1ccc(C)cc1` as the compound, how does the Potency read?
Answer: inconclusive [inhibitor, single point]

Question: With `O=C(NCc1nc2ccccc2[nH]1)C1=C[C@@H](c2ccc(C(F)(F)F)cc2)C[C@@H](OCCCCO)O1` as the compound, how does the Potency read?
Answer: inconclusive [inhibitor, partial curve, poor fit]

Question: Which Potency does the source give for `COc1ccc(Nc2nccc(-c3cccc(N)c3)n2)cc1` here?
Answer: inconclusive [inhibitor, single point]

Question: Which Potency does the source give for `CCCc1ccc2oc(C(=O)N3CCN(c4cnccn4)CC3)c(C)c2c1` here?
Answer: inconclusive [inhibitor, partial curve]

Question: Which Potency does the source give for `CS(=O)(=O)N1N=C(c2cccs2)CC1c1ccccc1O` (stereo not given) here?
Answer: inactive

Question: Which Potency does the source give for `COc1cccc(Nc2ncc3nc(C)c(=O)n(-c4ccccc4)c3n2)c1` here?
Answer: inconclusive [inhibitor, single point]

Question: Which Potency does the source give for `CCOc1ccc(NC(=O)CN(C)C(=O)c2ccncc2)cc1OCC` here?
Answer: inactive

Question: With `CCN(CCNc1ccc(Cl)cc1[N+](=O)[O-])C(=O)c1cc([N+](=O)[O-])c(N(C)C)cc1OC` as the compound, how does the Potency read?
Answer: inconclusive [inhibitor, single point]

Question: For `Cc1cc(NC(=O)CSc2nnc(-c3ccc(Br)o3)n2Cc2ccccc2)no1`, which Potency is on record?
Answer: inconclusive [inhibitor, single point]

Question: For `COc1ccc(NC(=O)CSc2nc(N)c3cc4c(nc3n2)CCCC4)cc1`, which Potency is on record?
Answer: inconclusive [inhibitor, single point]

Question: Which Potency does the source give for `CCOCCn1c(CC)nc2ccccc21` here?
Answer: inactive

Question: With `CCCN(Cc1cccs1)C(=O)Nc1cc(OC)ccc1OC` as the compound, how does the Potency read?
Answer: inconclusive [inhibitor, single point]

Question: Which Potency does the source give for `CCc1c(N=O)c(-c2ccccc2)n(O)[n+]1[O-]` here?
Answer: inconclusive [inhibitor, partial curve]

Question: Which Potency does the source give for `Cc1ccc(N(C)C(=O)c2cc(S(=O)(=O)N3CCOCC3)cn2C)cc1` here?
Answer: inactive

Question: With `CCC(C(=O)NCCc1ccc(S(N)(=O)=O)cc1)c1ccccc1` (stereo not given) as the compound, how does the Potency read?
Answer: inactive
